In the supplement of paper PMC8728848:
This is one part of the list.

Legend:
Test in all cases: glycan array binding signal (z-score within array); higher = stronger binding
Conditions in all cases: glycan notation: IUPAC condensed, linker removed
[1] = target: Fuc(a1-2)Gal(b1-4)GlcNAc(b1-3)Gal(b1-4)GlcNAc(b1-2)Man(a1-3)[Fuc(a1-2)Gal(b1-4)GlcNAc(b1-3)Gal(b1-4)GlcNAc(b1-2)Man(a1-6)]Man(b1-4)GlcNAc(b1-4)GlcNAc
Method in brief: (§1)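 Columns mapping to the same glycan were averaged after glycan names were converted to IUPAC-condensed notation. The data come from 3228 arrays in the Consortium for Functional Glycomics database, limited to those with an available protein sequence. Binding is reported as a within-array Z-score averaged across arrays of one protein sequence and across linkers.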

[2] = target: Fuc(a1-2)Gal(b1-4)GlcNAc(b1-3)Gal(b1-4)GlcNAc(b1-3)Gal(b1-4)GlcNAc
Method in brief: as §1

[3] = target: Fuc(a1-2)Gal(b1-4)GlcNAc(b1-3)GalNAc
Method in brief: as §1

[4] = target: Fuc(a1-2)Gal(b1-4)GlcNAc(b1-3)[Fuc(a1-2)Gal(b1-4)GlcNAc(b1-6)]GalNAc
Method in brief: as §1

[5] = target: Fuc(a1-2)Gal(b1-4)GlcNAc(b1-3)[Fuc(a1-3)[Gal(b1-4)]GlcNAc(b1-6)]Gal(b1-4)Glc
Method in brief: as §1

[6] = target: Fuc(a1-2)Gal(b1-4)GlcNAc(b1-6)GalNAc
Method in brief: as §1

[7] = target: Fuc(a1-2)Gal(b1-4)GlcNAc6S
Method in brief: as §1

[8] = target: Fuc(a1-2)Gal(b1-4)[Fuc(a1-3)]GlcNAc
Method in brief: as §1

[9] = target: Fuc(a1-2)Gal(b1-4)[Fuc(a1-3)]GlcNAc(b1-2)Man(a1-3)[Fuc(a1-2)Gal(b1-4)[Fuc(a1-3)]GlcNAc(b1-2)Man(a1-6)]Man(b1-4)GlcNAc(b1-4)[Fuc(a1-6)]GlcNAc
Method in brief: as §1

[10] = target: Fuc(a1-2)Gal(b1-4)[Fuc(a1-3)]GlcNAc(b1-2)[Fuc(a1-2)Gal(b1-4)[Fuc(a1-3)]GlcNAc(b1-4)]Man(a1-3)[Fuc(a1-2)Gal(b1-4)[Fuc(a1-3)]GlcNAc(b1-2)Man(a1-6)]Man(b1-4)GlcNAc(b1-4)GlcNAc
Method in brief: as §1

[11] = target: Fuc(a1-2)Gal(b1-4)[Fuc(a1-3)]GlcNAc(b1-3)Gal(b1-4)[Fuc(a1-3)]GlcNAc
Method in brief: as §1

[12] = target: Fuc(a1-2)Gal(b1-4)[Fuc(a1-3)]GlcNAc(b1-3)Gal(b1-4)[Fuc(a1-3)]GlcNAc(b1-3)Gal(b1-4)[Fuc(a1-3)]GlcNAc
Method in brief: as §1

[13] = target: Fuc(a1-2)Gal(b1-4)[Fuc(a1-3)]GlcNAc(b1-3)GalNAc
Method in brief: as §1

[14] = target: Fuc(a1-2)Gal(b1-4)[Fuc(a1-3)]GlcNAc(b1-3)[Neu5Ac(a2-6)Gal(b1-4)GlcNAc(b1-6)]Gal(b1-4)Glc
Method in brief: as §1

[15] = target: Fuc(a1-2)Gal3S(b1-4)GlcNAc
Method in brief: as §1

[16] = target: Fuc(a1-2)Gal6S(b1-3)GlcNAc
Method in brief: as §1

[17] = target: Fuc(a1-2)Gal6S(b1-3)GlcNAc6S
Method in brief: as §1

Fuc(a1-2)Gal6S(b1-4)Glc = target: Fuc(a1-2)Gal6S(b1-4)Glc
Method in brief: as §1

[18] = target: Fuc(a1-2)Gal6S(b1-4)Glc6S
Method in brief: as §1

Fuc(a1-2)[Gal(a1-3)]Gal = target: Fuc(a1-2)[Gal(a1-3)]Gal
Method in brief: as §1

[19] = target: Fuc(a1-2)[Gal(a1-3)]Gal(b1-3)GalNAc
Method in brief: as §1

[20] = target: Fuc(a1-2)[Gal(a1-3)]Gal(b1-3)GalNAc(b1-3)Gal(a1-4)Gal(b1-4)Glc
Method in brief: as §1

[21] = target: Fuc(a1-2)[Gal(a1-3)]Gal(b1-3)GlcNAc
Method in brief: as §1

[22] = target: Fuc(a1-2)[Gal(a1-3)]Gal(b1-3)GlcNAc(b1-2)Man(a1-3)[Fuc(a1-2)[Gal(a1-3)]Gal(b1-3)GlcNAc(b1-2)Man(a1-6)]Man(b1-4)GlcNAc(b1-4)GlcNAc
Method in brief: as §1

[23] = target: Fuc(a1-2)[Gal(a1-3)]Gal(b1-3)GlcNAc(b1-2)Man(a1-3)[Fuc(a1-2)[Gal(a1-3)]Gal(b1-3)GlcNAc(b1-2)Man(a1-6)]Man(b1-4)GlcNAc(b1-4)[Fuc(a1-6)]GlcNAc
Method in brief: as §1

[24] = target: Fuc(a1-2)[Gal(a1-3)]Gal(b1-3)GlcNAc(b1-3)GalNAc
Method in brief: as §1

[25] = target: Fuc(a1-2)[Gal(a1-3)]Gal(b1-3)GlcNAc(b1-6)GalNAc
Method in brief: as §1

[26] = target: Fuc(a1-2)[Gal(a1-3)]Gal(b1-4)Glc
Method in brief: as §1

[27] = target: Fuc(a1-2)[Gal(a1-3)]Gal(b1-4)GlcNAc
Method in brief: as §1

[28] = target: Fuc(a1-2)[Gal(a1-3)]Gal(b1-4)GlcNAc(b1-2)Man
Method in brief: as §1

B1: DC-ASGPR-short (Homo sapiens) (protein)
chain: MTRTYENFQYLENKVKVQGFKNGPLPLQSLLQRLRSGPCHLLLSLGLGLLLLVIICVVGFQNSKFQRDLVTLRTDFSNFTSNTVAEIQALTSQGSSLEETIASLKAEVEGFKQERQAVHSEMLLRVQQLVQDLKKLTCQVATLNNNASTEGTCCPVNWVEHQDSCYWFSHSGMSWAEAEKYCQLKNAHLVVINSREEQNFVQKYLGSAYTWMGLSDPEGAWKWVDGTDYATGFQNWKPGQPDDWQGHGLGGGEDCAHFHPDGRWNDDVCQRPYHWVCEAGLGQTSQESH
glycan array binding signal (z-score) [1]: -0.195 | glycan array binding signal (z-score) [2]: -0.281 | glycan array binding signal (z-score) [3]: -0.243 | glycan array binding signal (z-score) [4]: 0.01 | glycan array binding signal (z-score) [5]: -0.276 | glycan array binding signal (z-score) [6]: 4.65 | glycan array binding signal (z-score) [7]: -0.281 | glycan array binding signal (z-score) [8]: -0.259 | glycan array binding signal (z-score) [9]: -0.24 | glycan array binding signal (z-score) [10]: -0.192 | glycan array binding signal (z-score) [11]: -0.251 | glycan array binding signal (z-score) [12]: -0.236 | glycan array binding signal (z-score) [13]: -0.221 | glycan array binding signal (z-score) [14]: -0.273 | glycan array binding signal (z-score) [15]: -0.284 | glycan array binding signal (z-score) [16]: -0.261 | glycan array binding signal (z-score) [17]: 0.591 | glycan array binding signal (z-score) (Fuc(a1-2)Gal6S(b1-4)Glc): -0.285 | glycan array binding signal (z-score) [18]: -0.281 | glycan array binding signal (z-score) (Fuc(a1-2)[Gal(a1-3)]Gal): -0.271 | glycan array binding signal (z-score) [19]: -0.265 | glycan array binding signal (z-score) [20]: -0.276 | glycan array binding signal (z-score) [21]: -0.271 | glycan array binding signal (z-score) [22]: -0.267 | glycan array binding signal (z-score) [23]: -0.268 | glycan array binding signal (z-score) [24]: -0.254 | glycan array binding signal (z-score) [25]: 2.65 | glycan array binding signal (z-score) [26]: -0.263 | glycan array binding signal (z-score) [27]: -0.273 | glycan array binding signal (z-score) [28]: -0.267
